# Reference: PubChem BioAssay AID743279 (National Center for Advancing Translational Sciences (NCATS), 2014)
# About 17,000 (4.7%) of roughly 360,000 compounds were called active. Inconclusive means that the source gave no clear call. Such entries were picked first, then a sample of the others. No stated cut-off is given here; in the data, active means activity change below about -50%; inconclusive means mostly about -30% to -49%; inactive means weaker than that.
# Assay: qHTS for Inhibitors of Inflammasome Signaling: IL-1-beta AlphaLISA Primary Screen
# Conditions: THP-1 LPS/ATP IL-1B secretion, 16 h; at 57.5 µM, stronger effect = lower value
# Method in brief: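 Secreted IL-1B measured by AlphaLISA bead assay after 16 h compound exposure of THP-1 cells; compounds (final up to 57.5 uM) added 1 h before LPS (250 ng/mL) and ATP (1.25 mM) stimulation; lower signal means less secretion.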
# On the % scale 0 is the no-effect control and ±100 the full control effect.
row,Structure (SMILES),activity change
1,Cc1ccc(C(=O)Nc2sc3c(c2C(=O)O)CCCC3)o1,inconclusive: -33.6%
2,COc1ccc(CNC(=O)c2sc(=O)n(Cc3ccc(C)cc3)c2C)cc1,inconclusive: -34.4%
3,COc1cc(/C=C2\SC(=O)N(c3ccc(O)cc3)C2=O)cc(OC)c1OC,inconclusive: -39.6%
4,Cc1ccc(CS(=O)(=O)c2ncn[nH]2)cc1,inactive: -5.47%
5,COc1ccc(Cl)cc1C(=O)NCc1ccc2c(c1)OCO2,inconclusive: -36.6%
6,N#C/C(N=Nc1ccccc1O)=N\Nc1ccccc1O,inconclusive: -35.1%
7,O=C(N/N=C/c1ccncc1)c1cc2ccccc2o1,active: -52.5%
8,Cc1cccc(NC(=O)C(Cc2ccccc2)n2cccc2)c1 (stereo not drawn),inconclusive: -41.6%
9,Cc1ccc(F)c(NC(=O)c2ccc(Cn3cc(Cl)cn3)cc2)c1,inconclusive: -41.7%
10,Cc1nc2c(-c3ccc(F)cc3)cnn2c(N)c1-c1ccccc1,active: -73.4%
11,CN1/C(=C\C=N\NC(=O)c2ccc(O)cc2)C(C)(C)c2ccccc21,inactive: -5.88%
12,CCN1CCCC1CNC(=O)CSc1cc(=O)n(C)c2cc(Cl)ccc12 (stereo not drawn),inconclusive: -38.5%
13,CCCCOc1ccc(C(O)(CC)CCN2CCOCC2)cc1 (stereo not drawn),inconclusive: -47.4%
14,CN(C(=O)COC(=O)CSc1ccc([N+](=O)[O-])cc1)c1ccccc1,inactive: 0%
15,Cc1nc(SCC(=O)NC(C)(C#N)C2CC2)c2c(-c3cccs3)csc2n1 (stereo not drawn),active: -58.9%
16,N#CCc1ccc(NC(=O)/C=C/c2ccc([N+](=O)[O-])o2)cc1,active: -97.8%
17,Cc1ccc(NC(=O)c2cc(C(C)(C)C)nn2Cc2ccccc2)cc1,active: -80.6%
18,Cc1ccc2cc(/C=N/NC(=O)[C@@H]3CCCN3)c(Cl)nc2c1,inconclusive: -44.2%
19,COc1ccccc1N(Cc1ccccc1)S(=O)(=O)c1cccc(C(=O)Nc2ncccc2C)c1,inactive: -2.9%
20,OCCCNc1c2c(nc3cc(-c4ccc(Cl)cc4)nn13)CCC2,inconclusive: -32.9%
21,COc1ccc(NS(=O)(=O)c2ccc3oc4ccccc4c3c2)cn1,inactive: 24%
22,CCOc1ccc(C(=O)NCc2ccc3c(c2)OCO3)cc1OCC,inconclusive: -32.4%

row,Structure (SMILES),activity change
1,O=C(Nc1ccc(S(=O)(=O)N2CCOCC2)cc1)c1cc(-c2ccccc2O)n[nH]1,inconclusive: -32%
2,O=C(Nc1nc(-c2ccc(F)cc2)cs1)c1cnccn1,inconclusive: -37.4%
3,CC(C)Cn1c(N)c(C(=O)COC(=O)C2CC(=O)N(Cc3ccccc3Cl)C2)c(=O)n(C)c1=O (stereo not drawn),active: -60.5%
4,O=C(NC1CC1)C1CCN(c2ncnc3c2sc2cccc(F)c23)CC1,inactive: -17.3%
5,Cn1cnnc1SCc1ccc(C(=O)N=Nc2c(O)n(Cc3ccc(Cl)cc3)c3ccccc23)cc1,inconclusive: -38.2%
6,CSc1ccccc1OCc1cc(C(=O)N2CCc3c(Cl)cccc3C2)no1,inconclusive: -38.2%
7,COC(=O)c1c(C)oc2ccc(N(C(=O)c3ccncc3)S(=O)(=O)c3ccc(C)cc3C)cc12,inconclusive: -38.4%
8,Cc1cccc2cc(-c3nc4c(C)cccn4c3NCc3ccco3)c(=O)[nH]c12,inconclusive: -45.4%
9,COc1cc(/C=C2\SC(N3CCCCC3)=NC2=O)cc(OC)c1OC,inconclusive: -37.4%
10,Cc1ccc(NNc2c(C)nc3ccccc3nc2=O)cc1,inconclusive: -40.3%
11,CCCCNC(=O)c1onc(CSc2cccc(OC)c2)c1C(=O)NCCCC,inconclusive: -31.6%
12,CCN(CC(=O)Nc1ccc2c(c1)OCCO2)C(=O)c1ccc(C(F)(F)F)cc1,inactive: -2.03%
13,COc1ccc(-c2cc3c(=O)n(CC(=O)N4CCCCC4)ncn3n2)cc1,inactive: -11.4%
14,CC1CCN(CC(O)COCCC23CC4CC(CC(C4)C2)C3)CC1 (stereo not drawn),inconclusive: -33.3%
15,O=C(NCC(c1cccnc1)N1CCN(c2ccccc2F)CC1)c1cccc(Cl)c1 (stereo not drawn),inconclusive: -37.7%
16,CCOC(=O)C1=CN(Cc2cccc(F)c2)S(=O)(=O)N(CC)C1c1ccc(C(F)(F)F)cc1 (stereo not drawn),inactive: -2.41%
17,COC(=O)C(C)Oc1cc(C)ccc1COc1ccc(-n2nc(C)n(C(F)F)c2=O)cc1 (stereo not drawn),inactive: 4.87%
18,COc1cc(NC(=O)NC2Cc3ccccc3C2)cc(OC)c1,inactive: -0.934%
19,CCn1c(SCC(=O)Nc2cc(OC)c(OC)c(OC)c2)nnc1-c1cccs1,inactive: -2.94%
20,[O-]/[N+](=C/c1cccnc1)c1ccc(Br)cc1,inconclusive: -47.6%
21,COc1ccc(Nc2nc(NCc3ccco3)nc(N/N=C/c3ccc(O)cc3)n2)cc1,active: -69.2%
